The other results are listed elsewhere or left out.
tested on: T1, C. trachomatis L2/434/Bu expressing GFP (CTL2-GFP); design: species or system HeLa; C. trachomatis total inclusion area by high-content imaging, normalised to DMSO; details: total inclusion area; 28.5 h, 10 µM; inhibitor
T1 construct: L2/434/Bu GFP intracellular growth in HeLa cells
Outline: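 Post-fluorescence-read fixation, DNA staining with Hoechst and high-content imaging; GFP inclusion area and number per well, and nuclei counts, used as proxies for bacterial growth and host viability.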

Question: With N#C/C(=C\c1cn(-c2ccccc2)nc1-c1ccc(S(=O)(=O)N2CCOCC2)cc1)c1nc2ccccc2c(=O)[nH]1 [CBK266343] as the compound, how does the “% of control remaining” value read?
Answer: 133.914

Question: CC(Oc1cccc(Cl)c1)C(=O)NN (stereo not drawn) [CBK261207] was tested. Which “% of control remaining” value did it give?
Answer: 81.7733

Question: Which “% of control remaining” value does the source give for Cc1nn(C)c(C)c1NC(=O)CSc1nnc(-c2cccc(Br)c2)n1-c1ccccc1 [CBK267430] here?
Answer: 93.5638

Question: How did the “% of control remaining” value turn out when O=C(Nc1ccc(Cl)cc1)N1CCCC(CO)C1 (stereo not drawn) [CBK156047] was run?
Answer: 89.7124

Question: For COc1cc(OC)cc(C(=O)Nc2ccc(S(=O)(=O)Nc3nccs3)cc2)c1 [CBK261300], which “% of control remaining” value is on record?
Answer: 96.7472

Question: With Cn1c(SCCC(=O)O)nnc1-c1ccc2c(c1)OCO2 [CBK269842] as the compound, how does the “% of control remaining” value read?
Answer: 106.491

Question: For Nc1ncc(-c2cccc(OC(F)(F)F)c2)nc1-c1ccc(F)c(Cl)c1 [CBK064021], which “% of control remaining” value is on record?
Answer: 104.409

Question: CC(=O)N[C@H](C(=O)N1CCC2(C/C=C/C[C@H]3COCC[C@H]3NC(=O)[C@@H](CC(C)C)NC2=O)CC1)[C@@H](C)OC(C)(C)C [CBK292197] was tested. Which “% of control remaining” value did it give?
Answer: 97.7441

Question: CC(Sc1ccccc1)C(=O)NC(C)(C)C (stereo not drawn) [CBK026610] was tested. Which “% of control remaining” value did it give?
Answer: 102.275

Question: For COC(=O)c1ccc(-n2cccn2)c(C#Cc2cccnc2)c1 [CBK284525], which “% of control remaining” value is on record?
Answer: 97.4971

Question: For O=S(=O)(c1ccccc1)N1CCCC1c1cccs1 (stereo not drawn) [CBK057002], which “% of control remaining” value is on record?
Answer: 47.2603

Question: For Cc1ccc(-c2nnc(NCc3cnn(C)c3C)o2)c(C)c1 [CBK306166], which “% of control remaining” value is on record?
Answer: 89.0103

Question: Which “% of control remaining” value does the source give for CC(=O)N1C[C@@H]2OCC(=O)N(Cc3nccn3C)[C@@H]2C1 [CBK289668] here?
Answer: 125.691

Question: How did the “% of control remaining” value turn out when OCCN1CCN(C2CCN(Cc3ccccc3Cl)CC2)CC1 [CBK264710] was run?
Answer: 96.7254

Question: With COc1ccc(C(=O)N2CCC3(CCN(C(=O)Cc4c[nH]cn4)C3)C2)cc1OC (stereo not drawn) [CBK131768] as the compound, how does the “% of control remaining” value read?
Answer: 110.684

Question: How did the “% of control remaining” value turn out when CC(C)Cn1c(=O)[nH]c2ncc(-c3ccco3)nc21 [CBK064353] was run?
Answer: 88.6927

Question: Which “% of control remaining” value does the source give for O=C(Nc1sc2c(c1C(=O)O)CCCC2)c1cc2ccccc2o1 [CBK264551] here?
Answer: 110.03

Question: Which “% of control remaining” value does the source give for CC(C)NC(=O)[C@@H](C)C1CC[C@@]2(C)CC[C@H](NC(=O)c3cncnc3)[C@@H](C)[C@@H]2[C@H]1O (stereo partly drawn) [CBK289454] here?
Answer: 94.3055

Question: How did the “% of control remaining” value turn out when CCn1cc(C(=O)N2CCCC2c2nc3ccccc3[nH]2)cn1 (stereo not drawn) [CBK283776] was run?
Answer: 97.4141

Question: For CC(C)CC(NC(=O)c1ccco1)c1nc2cccnc2n1C (stereo not drawn) [CBK283827], which “% of control remaining” value is on record?
Answer: 81.481

Question: O=C(NCc1ccccn1)C(=O)N/N=C/c1ccccc1[N+](=O)[O-] [CBK262204] was tested. Which “% of control remaining” value did it give?
Answer: 106.054

Question: For Cc1cn2c3c(=O)n(C)c(=O)n(C)c3nc2n1CCN1CCOCC1 [CBK270139], which “% of control remaining” value is on record?
Answer: 111.9

Question: Which “% of control remaining” value does the source give for O=C(Nc1ccc(Br)cc1C(=O)c1ccccc1)c1ccc([N+](=O)[O-])s1 [CBK066838] here?
Answer: 68.2253

Question: Which “% of control remaining” value does the source give for CC(=O)N1CCc2cc(NCc3nc4ccccc4n3C(C)c3ccccc3)ccc21 (stereo not drawn) [CBK285621] here?
Answer: 93.1397

Question: Cc1ccc(S(=O)(=O)N(CC(O)Cn2c3ccc(Cl)cc3c3cc(Cl)ccc32)c2ccccc2)cc1 (stereo not drawn) [CBK263353] was tested. Which “% of control remaining” value did it give?
Answer: 97.2668

Question: COc1ccc(CCNC(=O)N2CCCC(CO)C2)cc1 (stereo not drawn) [CBK156059] was tested. Which “% of control remaining” value did it give?
Answer: 93.9749

Question: How did the “% of control remaining” value turn out when Cc1ccc2nc(Cn3cc(-c4cnn(Cc5ccccc5)c4)cn3)cn2c1 [CBK297125] was run?
Answer: 85.2253

Question: CC1Cc2cc(C(O)CN3CCC(O)(c4ccccc4F)CC3)ccc2N1S(C)(=O)=O (stereo not drawn) [CBK283091] was tested. Which “% of control remaining” value did it give?
Answer: 100.978

Question: Which “% of control remaining” value does the source give for Nc1cccc(S(=O)(=O)N2CCC(C(=O)O)CC2)c1 [CBK286541] here?
Answer: 104.236

Question: How did the “% of control remaining” value turn out when CCCCCOc1ccc(Nc2cc(-c3ccc(N(C)C)cc3)ncn2)cc1 [CBK090889] was run?
Answer: 91.0564

Question: COc1ccc(CNC(=O)N2CCCCC2CO)cc1OC (stereo not drawn) [CBK155981] was tested. Which “% of control remaining” value did it give?
Answer: 93.4754

Question: Which “% of control remaining” value does the source give for CS(=O)(=O)N1CC2(CCN(Cc3ccc(Cl)c(Cl)c3)CC2)c2ccccc21 [CBK084043] here?
Answer: 80.6827

Question: With Cc1noc(C)c1S(=O)(=O)Nc1c(C(=O)O)sc2ncccc12 [CBK049988] as the compound, how does the “% of control remaining” value read?
Answer: 85.1367

Question: How did the “% of control remaining” value turn out when CC(/C(=N/O)c1ccccc1)C(O)c1ccccn1 (stereo not drawn) [CBK022993] was run?
Answer: 41.0584

Question: How did the “% of control remaining” value turn out when CC1(Cc2ccn[nH]2)SCCCS1 [CBK019308C] was run?
Answer: 44.0093

Question: With CCCc1csc(C2CN3CCCC3CO2)n1 (stereo not drawn) [CBK304799] as the compound, how does the “% of control remaining” value read?
Answer: 91.0155

Question: Which “% of control remaining” value does the source give for COc1ccc([C@@]23CCC(NC(=O)Nc4ccccc4OC(F)F)C[C@@H]2N(C)CC3)cc1OC (stereo partly drawn) [CBK047547T] here?
Answer: 86.9605

Question: COc1ccc2c(c1)CCCN2C(=O)Cn1nc(C)cc1C [CBK282042] was tested. Which “% of control remaining” value did it give?
Answer: 94.9796

Question: For COCC(=O)N1CCC(Oc2ccc3ncccc3c2)(C(=O)O)CC1 [CBK307340], which “% of control remaining” value is on record?
Answer: 72.7248

Source: publication PMC12040169 (PLOS Biology, 2025)
